According to article PMC12136788:
The other results are listed elsewhere or left out.

T1: UNK ZnF1-3 (human, UniProt Q9C0B0 31-174)
T1 sequence: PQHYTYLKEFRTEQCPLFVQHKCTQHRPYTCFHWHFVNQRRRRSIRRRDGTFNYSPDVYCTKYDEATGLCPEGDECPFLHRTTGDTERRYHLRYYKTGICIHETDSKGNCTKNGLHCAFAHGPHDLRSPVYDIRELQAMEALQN

B1: chr5:37680062:37680063:+_ENSMUSG00000029121_ENSMUST00000031004|mus_hu|mus_mus_mus_hu_False|18_98 (ssRNA)
RNA: GGGAGUUCUACAGUCCGACGAUCUUUGGGUGUAGCUGGCACCUCGUACACAGGACCGUCAUACAUGCCCCUGGAAACCCCUUGCAAUCCAAAAACCUUAUUCCUGAUUUUGACGCGCUGGUAGAGAUGCUCCGGGAACGCCUUCAACAGAGGAUUGAGCAUCA
B2: 49560123_49560243_1055_CDS_ENSMUSG00000037892_ENSMUST00000035931|mouse|control|control (ssRNA)
RNA: GGGAGUUCUACAGUCCGACGAUCCAUGUCGGAGGCGGUGAGCUGAAGCUCGUAGCUAGCCUUCAGCUCCCGAUCCAACUCUUUCACCACUAUGAGUUCAGCGUACUUGGCCCCGUCUGUCCUGGUUCGCACUUCGAUAUUAAACAACAGAGGAUUGAGCAUCA
B3: chr14:78183846:78183847:+_ENSG00000119705_ENST00000557342|hu_hu|hu_hu_hu_mus_False|1_98 (ssRNA)
RNA: GGGAGUUCUACAGUCCGACGAUCUCUCAGAAAUCUUUCUUUCUUUUAUGUUUGAGCUCCGUGCAAAGCCUUUGCUCUUUGAGCUUGAACGUGGAUCUAUGGGAGGGAAAGCACUGUCAGAAAAGGUAAUUUUUUUUUCCGAAGCAACAGAGGAUUGAGCAUCA
B4: chrX:71549400:71549401:+_ENSMUSG00000019087_ENSMUST00000019231|mus_hu|mus_mus_mus_hu_False|28_38 (ssRNA)
RNA: GGGAGUUCUACAGUCCGACGAUCGCAGUAGGAAGAGGGAAGCUCUUCAGUCCAGUGCGCUGCAGGGUGGGAAAGCAACAACACGGACACCGUCCCACCUCAAUUCCUCUCAGGUGUACAGGGUCACACAAUCUGGGUCAAAGACAACAGAGGAUUGAGCAUCA
B5: chr8:73998637:73998638:+_ENSMUSG00000074247_ENSMUST00000124745|mus_hu|motif|central (ssRNA)
RNA: GGGAGUUCUACAGUCCGACGAUCCUUGAUACAGGUUACAGCAUAAAUAAAAACUCAAGGAAAAUAAAUACAUCGGCUCCGGUGAGGUUGGAAGUGGUGUGGACGCAGGGUGUGGAUGGGCCGGCAGGGAGGCGGGCGGGCGGGCAACAGAGGAUUGAGCAUCA
B6: chr1:220276048:220276049:+_ENSG00000067704_ENST00000302637|hu_hu|hu_hu_hu_mus_True|78_88 (ssRNA)
RNA: GGGAGUUCUACAGUCCGACGAUCGCAAAUUGCCUGGUUGGCGGGAAUCGUCCAAGGUUGUGUGGUCCAAACUAAAACGCUAACAGGGGAUGAGGCAUCUGUAAGAGACUCCAACUUCGGAGGAGGUCUCAGGAGGGGGAAUCUCAACAGAGGAUUGAGCAUCA
B7: chr5:156566167:156566168:-_ENSG00000155868_ENST00000420343|hu_mus|motif|central (ssRNA)
RNA: GGGAGUUCUACAGUCCGACGAUCAAGAUCUUCUAGCUUUUCUUCUCGUUUUAUACUCCCAGGACUUCUUAUUAAGAUGUCGGAAAGGUCUAAGAAAUUAAUCAGUAUAGACAUAUUGAGUUUUCUCAGCUCUUUCUUAUGAUCCAACAGAGGAUUGAGCAUCA
B8: chr11:88707168:88707169:-_ENSMUSG00000018428_ENSMUST00000018572|mus_hu|FALSE|FALSE (ssRNA)
RNA: GGGAGUUCUACAGUCCGACGAUCCAAUGCCAAGGGGAAGAGCGAACGGAACUGGAUUGCCAUCCUGGAGGCUUGAAGUAAUUACACCAGCUCCUCGGCUACCAUCGGGGUGCGGGAUGCGGAGUCCGCGCGCCGCCGCCGGCCCAACAGAGGAUUGAGCAUCA
B9: chr14:23058014:23058015:-_ENSG00000129562_ENST00000250498|hu_hu|FALSE|FALSE (ssRNA)
RNA: GGGAGUUCUACAGUCCGACGAUCAGCAGGUACGCGUCCAGCAACUUCAGACGCUGCGGAGUGGAGCUCAAGUACUCUUCUAAGAACCGCGAAAUGACAGACACUACCGACGCCGACAUAACUGCACGCAAGGUACUCCAGUCCCAACAGAGGAUUGAGCAUCA
B10: chr12:39756943:39756944:-_ENSG00000139116_ENST00000544797|hu_mus|hu_hu_hu_mus_False|1_88 (ssRNA)
RNA: GGGAGUUCUACAGUCCGACGAUCGGUUUGGCUGUUACCCCCAAGGGAAUCCUGUAGGAGUCUUGUCAGCUUAGAGUCUCUGUAAGGGACAUGGGUGGCUCUCUUGCUCUUGUCCCCCAAGGCGCUGAUUACAUUCCCAAGUGCCAACAGAGGAUUGAGCAUCA
B11: chr3:176767854:176767855:-_ENSG00000177565_ENST00000430069|hu_hu|hu_hu_hu_mus_False|28_88 (ssRNA)
RNA: GGGAGUUCUACAGUCCGACGAUCGACAUCCUUGUUACUGGGCACGUCUUGCCCUCCUUCCCGUAUGCAGUGUCUAAGCACGAGCUGCGUAGGGCCACUCGUGCUGUUCUCACUAAGGUUCCAGAUUCUUGCCGUGGAGUCUCCCAACAGAGGAUUGAGCAUCA
B12: chr7:54825262:54825263:-_ENSG00000132432_ENST00000352861|hu_hu|hu_hu_hu_mus_False|48_48 (ssRNA)
RNA: GGGAGUUCUACAGUCCGACGAUCCUGCCGGCUGGGCUCCACAAACUGCAUUACCUGAUCCAUGUUUGUUGGAUGGCGGAUUGAGAGUGCCAGGGACCGUAGCUCAGGAGAGAACCGAGCCCAACGGAACCGGAAGCUGGCAACCAACAGAGGAUUGAGCAUCA
B13: chr10:33190432:33190433:-_ENSG00000150093_ENST00000302278|hu_mus|hu_hu_hu_mus_True|88_98 (ssRNA)
RNA: GGGAGUUCUACAGUCCGACGAUCUACAUUUUCCAAACCUGCACAUGAGUAAAACCAUGGCCACAGAGCCCCAAAACUACCCUACUGUGACUAAGAUGCUGCUGCUGUGAGCUUGGUGUUGCAAAAUCCGCCUGAGUAGGAUUCCAACAGAGGAUUGAGCAUCA
B14: chr2:48026839:48026840:+_ENSG00000116062_ENST00000540021|hu_hu|hu_hu_hu_mus_False|38_88 (ssRNA)
RNA: GGGAGUUCUACAGUCCGACGAUCAUAGUGAGCCACUAGCGUCCUAAAUCUCGAACAGUGGCGGUCAUCCGAAAACUGGCCGAUGAAAAACUUGCCCAGUGAAGUAUCCACAAAGCAAACACCAUACACACGAGUGUGACCAGACAACAGAGGAUUGAGCAUCA
B15: chr18:58105177:58105178:+_ENSMUSG00000024597_ENSMUST00000115366|mus_hu|FALSE|FALSE (ssRNA)
RNA: GGGAGUUCUACAGUCCGACGAUCGUUCUCUAUGAAACCUGUAUCUGUUAAUCUGAUUUUGAACAUAUGUUUACUUAAACCAAAGUUUGCCUAAUGAAUCUUGAUCACUUUAAAAUGCAAAAUACCAGCAACAUAAAUUUCAUUCAACAGAGGAUUGAGCAUCA
B16: chr1:67050029:67050030:-_ENSMUSG00000026000_ENSMUST00000119559|mus_mus|FALSE|FALSE (ssRNA)
RNA: GGGAGUUCUACAGUCCGACGAUCUUCCUUCAAAAGCAAGGGCAAUAUGUAGCCCAGAGUAAUACACAGAGUCAUGCUGUAAGCGGCAGGAGACAUGCUUUCUUUUCAGAGUUCAAAUGCAGGGAACUUGGCCUUUGUGGGGACCAACAGAGGAUUGAGCAUCA
B17: 144006312_144006432_1124_CDS_ENSMUSG00000029587_ENSMUST00000032591|mouse|control|control (ssRNA)
RNA: GGGAGUUCUACAGUCCGACGAUCCUGGUGGACGGUGAGGGUGCCCUUCUGGCAGAAGGACUUCCCACACUGACUGCACUUGAAGGGCUUCUCUCCUGUGUGAGUCCUCUGAUGGAUGACGAACUUGGACUUUUUGCAGAAGGACAACAGAGGAUUGAGCAUCA
B18: chr3:119450855:119450856:-_ENSMUSG00000028134_ENSMUST00000029780|mus_hu|mus_mus_mus_hu_False|78_98 (ssRNA)
RNA: GGGAGUUCUACAGUCCGACGAUCUGUGGUGCCACUAAGAGGUGUAUUUGCUGUCUGGACCGCUGUCACAGCUUGAAGAACUGCCUGAGCACGUUGGUUUAAUGUAUUAUCUGUCUUUAGUUCUUUGUGAUUCGAGUACUGGAUCAACAGAGGAUUGAGCAUCA
B19: chr6:108533379:108533380:-_ENSG00000112335_ENST00000426155|hu_hu|motif|central (ssRNA)
RNA: GGGAGUUCUACAGUCCGACGAUCGCCCCUUCUUGCCAAAUUUCAGGCAUGUCUUAUUUUAGAUGGAGUAUAGCUUUUAUCGGUUAUUUCAUCUUGUAAAAACAUGUGAAGACAACGUUCGUUCUGUGCCAGAGGAUGACCAGCCAACAGAGGAUUGAGCAUCA
B20: chr3:10015032:10015033:+_ENSMUSG00000027533_ENSMUST00000029046|mus_mus|mus_mus_mus_hu_True|78_98 (ssRNA)
RNA: GGGAGUUCUACAGUCCGACGAUCGUUUUUACCAUCACACGUAAUGAUACAAUCUGGCUUGGCCAUGGCGCCCAUUUUUCGCAAAGCUAUUCCCACUCCUAGCUCCUUCAUGUAUUCAUCAAAGCCUUUGCUGUCCACCAGGCGCAACAGAGGAUUGAGCAUCA
B21: chr4:63681588:63681589:-_ENSMUSG00000028364_ENSMUST00000107372|mus_hu|FALSE|FALSE (ssRNA)
RNA: GGGAGUUCUACAGUCCGACGAUCGCUUGUGCCGGAUGACUUUCUUGAGGACCCCACCUUCGGUAGCGAGGGCAAGGAAAGCAAGAAAGACACCUGCCAACAGCUGAGUCAUGGCCCCCAUGGUGGAGGUGGGUUUGGCUGGGUCAACAGAGGAUUGAGCAUCA
B22: chr15:66169770:66169771:+_ENSG00000103769_ENST00000567671|perfect_dup|motif|central (ssRNA)
RNA: GGGAGUUCUACAGUCCGACGAUCGUCCCAUAUCUGUGCCUUUAUUGUUUUCCCAUCAACCUGGAUGCUUCUUGUUGCAAACUCGGCUCCAAUGGUACUCUUGCUUUCCAGAUUAAACUCAUUUCGAGUAAAUCGAGACAGGAGCAACAGAGGAUUGAGCAUCA

The binders below were run against T1, UNK ZnF1-3 (assay: nsRBNS (natural sequence RNA bind-n-seq); RBNS binding buffer (assumed for nsRBNS): 25 mM Tris pH 7.5, 150 mM KCl, 3 mM MgCl2, 0.01% Triton X-100, 500 ug/ml BSA, 20 U/ml SUPERase-In, 4 C; UNK is unkempt and MSI1 is Musashi-1; names of the RNAs are library labels; protein concentration not given here; high values mean tight binding).

Binder | binding signal [enrichment R]
B1 | 0.901
B2 | 0.851
B3 | 1.04
B4 | 1.34
B5 | 1.9
B6 | 1.67
B7 | 0.426
B8 | 1.33
B9 | 1.33
B10 | 0.61
B11 | 0.377
B12 | 1.21
B13 | 1.15
B14 | 1.12
B15 | 0.638
B16 | 1.33
B17 | 0.495
B18 | 0.701
B19 | 0.978
B20 | 0.731
B21 | 1.06
B22 | 0.678
